Results reported in PubChem BioAssay AID652104 (National Center for Advancing Translational Sciences (NCATS), 2013).
The whole screen tested about 410,000 compounds, of which about 7,200 (1.8%) were called active. Inconclusive results, whose numbers are uncertain, are shown with a selection of clear calls. The call rests on the fitted dose curve; in most records, active means well fitted activation curve with a large enough effect; inconclusive means small, poorly fitted or top-dose-only effect, or another doubt; inactive means no such curve, though single readings can be large or run the other way. Potencies of inconclusive entries are left out as doubtful fits.

Experiment: qHTS of TDP-43 Inhibitors; further: nearly all actives have a fitted effect of over 50% in size; on growth rescue (activation): % of control where 0% means no effect
Details: TDP-43 expressing yeast growth rescue, BacTiter-Glo, 24 h; growth rescue (activation): at 46.1 µM (top of the series) unless noted
Procedure, shortened: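 Yeast cells expressing TDP-43 under galactose induction are exposed to compounds for 24 hr at 30 deg C. BacTiter-Glo luminescence measures growth, so protective compounds score as activators.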
Potency means the concentration at half of the fitted maximal effect; tags describe the fitted curve by direction and shape.

Compound | Potency | growth rescue (activation)
CCCC(=O)NC(c1ccco1)c1cc([N+](=O)[O-])c2cccnc2c1O (configuration not stated) | inconclusive [activator, partial curve] | 
Cc1cccc(Sc2ccc([N+](=O)[O-])cn2)c1 | active: 11.2 µM | 
COc1ccc(S(=O)(=O)NCC2CCCO2)cc1Cl (configuration not stated) | inconclusive [activator, partial curve] | 
FC(F)(F)c1cccc(NC(=S)NCC(c2cccnc2)N2CCOCC2)c1 (configuration not stated) |  | inactive: 15.1%
COCCNc1nc2ccccc2nc1NS(=O)(=O)c1ccc(C)cc1C |  | inactive: 9.3%
Cc1cccc(NC(=O)CSc2nnc3[nH]c(=O)cc(C)n23)c1C | inconclusive [activator, single point] | 
O=C(O)c1ccc(N/N=C/C=C/c2ccccc2)cc1 | active: 3.55 µM | 
Cc1ccc(C(=O)COC(=O)CNC(=O)c2cccs2)cc1 | inconclusive [activator, partial curve] | 
CCC1(C)Cc2c(sc3[nH]c(=S)n(Cc4ccccc4)c(=O)c23)CO1 (configuration not stated) | inconclusive [activator, single point] | 
CCOc1cc(/C=N/NC(=O)CN2CCCCC2)ccc1OCc1ccc(Cl)cc1 |  | inactive: 6.45%
Cc1c(NS(=O)(=O)c2ccccc2)cc(Cl)c(O)c1C | active: 10 µM | 
CCn1c2ccccc2c2nnc(SCc3ccccc3)nc21 | active: 25.1 µM | 
O=C(NCCOc1ccc(Cl)cc1)C1CC(=O)N(c2ccc3c(c2)OCCO3)C1 (configuration not stated) |  | inactive: 23.1%
CC(CO)Nc1nc(SCc2ccccc2)nc2sc3c(c12)CCC3 (configuration not stated) | inconclusive [activator, single point] | 
Cc1cc(C)nc(Nc2cccc(C(F)(F)F)c2)n1 | inconclusive [activator, partial curve] | 
COc1ccc(-c2ccc(C(=O)NCc3ccc(N(C)C)cc3)c3occc23)c(C)c1 | active: 17.8 µM | 
Cc1nonc1C1CCCN1C(=O)c1cc(COc2ccc(F)cc2F)on1 (configuration not stated) | inconclusive [activator, single point] | 
CCCNC(=O)CN1C(=O)COc2ccc(S(=O)(=O)N3CC(C)CC(C)C3)cc21 (configuration not stated) |  | inactive: 10.6%
O=C(C1COc2ccccc2O1)N1CCN(c2nc3c(F)cccc3s2)CC1 (configuration not stated) | active: 10 µM | 
COc1cc(C2NC(=O)C(C#N)=C(S)N2c2ccc(C)cc2)ccc1OC(C)C (configuration not stated) | inconclusive [activator, single point] | 
O=S(=O)(N/N=C\c1c(F)cccc1Cl)c1ccc(Cl)cc1 | inconclusive [activator, single point] | 
Cc1ccc(Nc2nc3ccc(C)cc3nc2-n2nc(C)cc2C)c(C)c1 |  | inactive: 32.8%
CC(C)(C)NC(=O)C(C1CC1)n1c(=O)c(-c2ccco2)nc2ccccc21 (configuration not stated) |  | inactive: 18.2%
N/C(=N\OC(=O)Cc1cccs1)c1cccc([N+](=O)[O-])c1 | active: 11.2 µM | 

Compound | Potency | growth rescue (activation)
Cc1cc(O)c2c(-c3ccccc3)cc(=O)oc2c1 | inconclusive [activator, partial curve] | 
O=C(c1ccc(CS(=O)c2ccccc2Cl)o1)N1CCN(c2ccccc2)CC1 (configuration not stated) | inconclusive [activator, single point] | 
COc1cccc(CNC(=O)c2sc3nc4n(c(=O)c3c2C)CCC4)c1 |  | inactive: 5.79%
Cc1cc(-c2ccc(C)c(S(=O)(=O)NC(C)Cc3ccco3)c2)on1 (configuration not stated) | inconclusive [activator, partial curve] | 
CNC(=O)c1sc(-c2ccc(Cl)cc2)nc1C | inconclusive [activator, single point] | 
O=C(Nc1nnc(-c2ccc(Cl)cc2)o1)Nc1ccccc1Cl |  | inactive: 22.8%
CN(c1ccc(Cl)cc1)c1cc2c(c3c1ccn3C)C1CCC2O1 (configuration not stated) | inconclusive [activator, single point] | 
COc1ccc(CCNC(=O)c2cnc3ccc(C)cn3c2=O)cc1OC |  | inactive: 25.3%
Cc1c(C(=O)Nc2ccc(F)cc2F)oc2ccc3c(c12)C(=O)CC(C)(C)O3 | inconclusive [activator, partial curve] | 
COc1ccc(Nc2ncnc3scc(-c4ccc(OC)cc4)c23)cc1 | active: 22.4 µM | 
COc1ccc(-c2cc(C(=O)NNC3=NCCC3)c3c(C)nn(-c4ccccc4)c3n2)cc1 | inconclusive [activator, partial curve] | 
CC(Sc1nc(N2CCOCC2)c2c(c1C#N)CC(C)(C)OC2)C(=O)Nc1ccccc1 (configuration not stated) | inconclusive [activator, partial curve, poor fit] | 
CCOc1ccccc1NC(=O)CSc1nc2c(oc3ccccc32)c(=O)n1C(C)C | inconclusive [activator, partial curve] | 
O=C(NCc1ccco1)c1ccc(CS(=O)Cc2ccc(Cl)cc2)o1 (configuration not stated) | inconclusive [activator, partial curve] | 
COC(=O)N1CCCC(c2cc(C(=O)Nc3ccccc3Cl)no2)C1 (configuration not stated) | inconclusive [activator, partial curve, poor fit] | 
O=C(O)c1ccc(-c2ccc(Cl)cc2Cl)o1 | inconclusive [activator, full curve] | 
COCCn1c(SCC(=O)NNC(=O)c2ccc(OC)c(OC)c2)nc2ccccc2c1=O |  | inactive: 10.4%
COc1ccc(F)cc1-c1cc(C(=O)Nc2ccc(NC(C)=O)cc2)[nH]n1 | inconclusive [activator, full curve] | 
O=C(Nc1cccc(NC(=O)c2ccccc2Cl)c1)c1ccc(F)cc1 | inconclusive [activator, single point] | 
COc1ccc(NC(=S)NNC(=O)C2CC2c2ccc(C)cc2)cc1 (configuration not stated) | inconclusive [activator, partial curve] | 
Clc1cccc(CSc2nncn3c2cc2sccc23)c1 | inconclusive [activator, partial curve] | 
COc1ccc(OC)c(C(=O)c2c(N)c(-c3nc(-c4ccc(C)c(C)c4)cs3)c3ccccn23)c1 |  | inactive: 17.1%
O=C(Cn1nnc(-c2cccs2)n1)N1CCc2ccccc2C1 | inconclusive [activator, single point] | 
